Structures are written as SMILES. The whole screen tested about 48,000 compounds, of which about 550 (1.1%) were called active. Inconclusive results (about 4%) are left out. No stated cut-off is given here; in the data, active means potency below about 15 µM; inconclusive means mostly about 16 µM to 33 µM; inactive means weaker than that. Some of the results follow.
Potency means the concentration at half of the fitted maximal effect.

Chain of UniProt P04062 (P04062 whole entry, looked up): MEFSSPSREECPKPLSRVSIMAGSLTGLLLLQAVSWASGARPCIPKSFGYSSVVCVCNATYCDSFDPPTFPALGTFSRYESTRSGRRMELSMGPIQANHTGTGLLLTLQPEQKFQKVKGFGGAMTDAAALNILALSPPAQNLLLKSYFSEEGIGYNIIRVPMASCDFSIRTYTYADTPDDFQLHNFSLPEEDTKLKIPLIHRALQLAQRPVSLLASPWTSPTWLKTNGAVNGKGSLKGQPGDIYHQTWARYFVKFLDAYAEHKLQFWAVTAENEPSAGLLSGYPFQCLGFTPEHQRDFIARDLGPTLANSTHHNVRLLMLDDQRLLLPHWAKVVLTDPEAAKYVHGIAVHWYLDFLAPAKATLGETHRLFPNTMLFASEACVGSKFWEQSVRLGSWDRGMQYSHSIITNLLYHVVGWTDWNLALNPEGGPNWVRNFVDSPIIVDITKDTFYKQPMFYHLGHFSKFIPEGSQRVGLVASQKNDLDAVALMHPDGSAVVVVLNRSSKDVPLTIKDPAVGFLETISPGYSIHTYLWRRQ

For this assay, the target named is Lysosomal acid glucosylceramidase (Homo sapiens) (UniProt P04062). In words: Glucocerebrosidase.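 Further: the screen sought inhibitors.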 The conditions noted are these: purified enzyme, resorufin glucoside fluorescence (screen aimed at inhibitors), 20 min. The method, boiled down:
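Wild-type enzyme at 0.2 nM final in 50mM citric acid/KH2PO4, 10mM sodium taurocholate, 0.01% tween-20, pH 5.9, with resorufin beta-D-glucopyranoside at 30 uM final. Compounds titrated, 20 min at RT, red fluorescence read; AC50 from titration.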
Consider `COc1ccccc1C(=O)OCC(=O)Nc1ccc(OC(F)F)cc1`, for which the Potency was inactive: > 76.9 µM.
The figure for `Cc1ccc(-c2cc(C(F)F)n3ncc(C(=O)NCc4ccco4)c3n2)cc1` is inactive: > 76.9 µM; for `COc1cccc(-c2nnc(SCC(=O)OC(C)C)n2N)c1` it is inactive: > 76.9 µM; for `CCOc1ccccc1N1CCN(S(=O)(=O)c2cccc3nsnc23)CC1` it is inactive: > 76.9 µM.
As for `O=C(NCN1C(=O)C2C3C=CC(C3)C2C1=O)Nc1ccccn1` (configuration not stated), the Potency is inactive: > 76.9 µM.
The figure for `CCOC(=O)N1CCC(NC(=O)CCc2nc(-c3ccc(C)cc3)no2)CC1` is inactive: > 76.9 µM; for `COC(=O)C1=C(C)N(c2ccc(OC)c(OC)c2)C(=O)C1` it is inactive: > 76.9 µM.
Consider `O=C(N1CCN(c2ccccn2)CC1)N1c2ccccc2Sc2ccccc21`, for which the Potency result was “inactive”.
`CCOC(=O)CNC(=O)Nc1cc(C(C)(C)C)nn1-c1ccccc1`: the Potency is inactive: > 76.9 µM.
The figure for `CC(C)CCn1c(=O)c2ccccc2n2c(CN3C(=O)NC4(CCC(C)CC4)C3=O)nnc12` (configuration not stated) is inactive: > 76.9 µM; for `C=CCn1c(SCc2cc(C(=O)OC)c(C)o2)nnc1-c1ccncc1` it is inactive: > 76.9 µM; for `CCc1ccc(NC(=O)c2cc(-c3ccc(OC)cc3)on2)cc1` it is inactive: > 76.9 µM.
Next, `Cc1ccc(NC(=O)Cc2nn(C)c(=O)c3ccccc23)cc1F`: “inactive”.
The figure for `CCN(CC)CCN1C(=O)C(O)=C(C(=O)c2sc(C)nc2C)C1c1cccnc1` (configuration not stated) is inactive: > 76.9 µM; for `O=S(=O)(NCc1ccccn1)c1ccc2c(c1)OCCO2` it is inactive: > 76.9 µM; for `O=C(CN1CCOCC1)N1CCc2ccccc2C(c2ccccc2)C1` (configuration not stated) it is inactive: > 76.9 µM.
With `COc1ccccc1NC(=O)Cn1cnc2sc(C(=O)NCc3ccco3)c(C)c2c1=O`, the Potency was inactive: > 76.9 µM.
Next, `CCOc1cc(NC(=O)C2CCCO2)c(OCC)cc1NC(=O)C1CC1` (configuration not stated): inactive: > 76.9 µM; `CC(C)NC(=O)c1n[nH]c(=O)c2ccccc12`: inactive: > 76.9 µM.
On to `CS(=O)(=O)N1CCC(c2noc(-c3ccc(C(F)(F)F)cc3)n2)CC1`, for which the Potency is inactive: > 76.9 µM.
Turning to `CCOc1ccc(-n2cc(C(=O)N3CCC(C)CC3)c3cc(OC)c(OC)cc3c2=O)cc1`, the Potency is inactive: > 76.9 µM.
`Nn1c(SCC(=O)Nc2ccc(S(=O)(=O)N3CCCC3)cc2)nnc1C(F)(F)F`: the Potency is inactive: > 76.9 µM.
Next, `CC(C)n1c(SCC(=O)Nc2ccc3c(c2)OCO3)nc2c1c(=O)n(C)c(=O)n2C`: inactive: > 76.9 µM; `COc1ccc(N(Cc2cc3ccccc3[nH]c2=O)C(=O)C2CCCO2)cc1` (configuration not stated): inactive: > 76.9 µM; `Cc1cccc2cc(CN(Cc3cccs3)Cc3nnnn3Cc3ccccc3)c(=O)[nH]c12`: inactive: > 76.9 µM.
Take `O=C(CSc1nnc(C2CC2)n1Cc1ccccc1)N1CCN(S(=O)(=O)c2ccccc2)CC1`: the Potency is inactive: > 76.9 µM.
With `COC(=O)c1ccc(CSc2nnnn2-c2ccc(C)cc2C)o1`, the Potency was inactive: > 76.9 µM.
In the case of `Cc1cccc(-c2c3c(=O)n(C)c(=O)n(C)c3c3c(C)cc(C)nn23)c1`, the Potency is inactive: > 76.9 µM.
Next, `CCCCNC(=O)c1nnn(-c2ccccc2)c1N`: inactive: > 76.9 µM; `Cc1ccc2cc3cc(C(=O)N4CCCCC4C)oc3nc2c1` (configuration not stated): inactive: > 76.9 µM.
As for `Cc1ccccc1C(=O)Nc1cccc(-c2nnc(SCC(=O)O)n2C)c1`, the Potency was inactive: > 76.9 µM.
Next, `C=C(C)COc1ccc(-c2nc(N)ncc2Oc2ccccc2OC)c(O)c1`: inactive: > 76.9 µM; `Cc1c(Nc2cc(=O)oc3ccccc23)c(=O)n(-c2ccccc2)n1C`: inactive: > 76.9 µM; `COC(=O)c1[nH]c2ccc(C)cc2c1NC(=O)CCN1CCN(Cc2ccc3c(c2)OCO3)CC1`: inactive: > 76.9 µM.
On to `CC(=O)NC(CCS(C)(=O)=O)C(=O)Nc1ccccc1C` (configuration not stated), for which the Potency is inactive: > 76.9 µM.
Next, `Cc1ccc(-c2nnn(CC(=O)NCC3COCCO3)n2)o1` (configuration not stated): inactive: > 76.9 µM.
Next, `CCCNC(=O)N1CCN(S(=O)(=O)c2ccc(C)c(C)c2)CC1`: inactive: > 76.9 µM; `CC(C)C1N=C2c3ccccc3N=C(SCC(=O)NCCc3ccc(S(N)(=O)=O)cc3)N2C1=O` (configuration not stated): inactive: > 76.9 µM.
Next, `COc1ccccc1OCCn1c(CO)nc2ccccc21`: inactive: > 76.9 µM.
As for `COc1ccc2c(=O)c3c(=O)n(Cc4ccco4)c(-c4ccccc4)nc3oc2c1`, the Potency is inactive: > 76.9 µM.
Next, `CCCn1c(=O)c2ccccc2n2c(SCC(=O)/C(C#N)=C(\C)N)nnc12`: inactive: > 76.9 µM.
On to `COCCNC(=O)CN(C(=O)CCC(=O)Nc1cc(C)on1)c1cccc(C)c1C`, for which the Potency was inactive: > 76.9 µM.
As for `CCCC(=O)Nc1cc(-c2nn(C)c(=O)c3ccccc23)ccc1N1CCCCC1`, the Potency is inactive: > 76.9 µM.
The figure for `CCc1nnc(NC(=O)c2c(O)c3cccc4c3n(c2=O)CC4)s1` is inactive: > 76.9 µM.
Turning to `Nn1c(SCC(=O)NC2CCCCC2)nnc1-c1ccc(Cl)cc1`, the Potency was inactive: > 76.9 µM.
The figure for `O=C(CCc1nc(-c2ccccc2F)no1)NCCN1CCOCC1` is inactive: > 76.9 µM; for `COCCCn1cnc2oc3nc4ccccc4nc3c2c1=O` it is inactive: > 76.9 µM; for `CCOC(=O)c1sc(NC(=O)c2cc3c(C)nn(-c4ccccc4)c3s2)nc1C` it is inactive: > 76.9 µM.
The figure for `COC(=O)Cn1cnc2c(nnn2-c2ccc(C)cc2)c1=O` is inactive: > 76.9 µM.
The figure for `COc1ccccc1-c1cn(S(=O)(=O)c2ccc(F)cc2)nc1N` is inactive: > 76.9 µM; for `Cn1cc(CNC(=O)C2c3ccccc3Oc3ccccc32)cn1` it is inactive: > 76.9 µM.
For `COC(=O)c1ccc(OCc2nc(N)nc(N3CCOCC3)n2)cc1`, the Potency was inactive: > 76.9 µM.
Next, `C(=N\n1cncn1)/c1ccc(N2CCOCC2)cc1`: inactive: > 76.9 µM; `CCOC(=O)C1Cc2ccccc2CN1` (configuration not stated): inactive: > 76.9 µM.
Next, `CC(C)OCCCNc1ncnc2c1[nH]c1ccccc12`: inactive: > 76.9 µM; `CCOC(=O)CSc1nc2cc3c(cc2cc1C#N)OCO3`: inactive: > 76.9 µM; `O=C(CSCSCC(=O)NCC1CCCO1)NCC1CCCO1` (configuration not stated): inactive: > 76.9 µM.

(Values after PubChem BioAssay AID360 (National Center for Advancing Translational Sciences (NCATS), 2006).)
